Results published in the supplement of paper PMC8728848.
Some of the results follow.

Assays:
Experiment in all cases: glycan array binding signal (z-score within array); higher = stronger binding
Settings in all cases: glycan notation: IUPAC condensed, linker removed
[1] = biological target: Gal(b1-3)GlcNAc(b1-6)[Gal(b1-3)]GalNAc
How it was run: (§1)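 The Consortium for Functional Glycomics database supplied 3228 glycan arrays, of which those lacking an available protein sequence were dropped. The binding signal, a within-array Z-score, was averaged across arrays of the same protein sequence and across linkers. Negative scores can be read as non-binding.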

Gal(b1-3)GlcNAc6S = biological target: Gal(b1-3)GlcNAc6S
How it was run: as §1

[2] = biological target: Gal(b1-3)[Fuc(a1-4)]GlcNAc
How it was run: as §1

[3] = biological target: Gal(b1-3)[Fuc(a1-4)]GlcNAc(b1-2)Man
How it was run: as §1

[4] = biological target: Gal(b1-3)[Fuc(a1-4)]GlcNAc(b1-2)Man(a1-3)[Gal(b1-3)[Fuc(a1-4)]GlcNAc(b1-2)Man(a1-6)]Man(b1-4)GlcNAc(b1-4)[Fuc(a1-6)]GlcNAc
How it was run: as §1

[5] = biological target: Gal(b1-3)[Fuc(a1-4)]GlcNAc(b1-3)Gal(b1-3)[Fuc(a1-4)]GlcNAc
How it was run: as §1

[6] = biological target: Gal(b1-3)[Fuc(a1-4)]GlcNAc(b1-3)Gal(b1-4)[Fuc(a1-3)]GlcNAc
How it was run: as §1

[7] = biological target: Gal(b1-3)[Fuc(a1-4)]GlcNAc(b1-6)GalNAc
How it was run: as §1

[8] = biological target: Gal(b1-3)[GlcNAc(b1-6)]GalNAc
How it was run: as §1

[9] = biological target: Gal(b1-3)[Neu5Ac(a2-6)]GalNAc
How it was run: as §1

[10] = biological target: Gal(b1-3)[Neu5Ac(a2-6)]GlcNAc(b1-4)Gal(b1-4)Glc
How it was run: as §1

[11] = biological target: Gal(b1-3)[Neu5Ac(b2-6)]GalNAc
How it was run: as §1

Gal(b1-4)Gal = biological target: Gal(b1-4)Gal
How it was run: as §1

[12] = biological target: Gal(b1-4)GalNAc(a1-3)[Fuc(a1-2)]Gal(b1-4)GlcNAc
How it was run: as §1

[13] = biological target: Gal(b1-4)GalNAc(b1-3)[Fuc(a1-2)]Gal(b1-4)GlcNAc
How it was run: as §1

Gal(b1-4)Glc = biological target: Gal(b1-4)Glc
How it was run: as §1

Gal(b1-4)Glc6S = biological target: Gal(b1-4)Glc6S
How it was run: as §1

Gal(b1-4)GlcNAc = biological target: Gal(b1-4)GlcNAc
How it was run: as §1

[14] = biological target: Gal(b1-4)GlcNAc(a1-6)Gal(b1-4)GlcNAc
How it was run: as §1

Gal(b1-4)GlcNAc(b1-2)Man = biological target: Gal(b1-4)GlcNAc(b1-2)Man
How it was run: as §1

[15] = biological target: Gal(b1-4)GlcNAc(b1-2)Man(a1-3)Man(b1-4)GlcNAc(b1-4)GlcNAc
How it was run: as §1

[16] = biological target: Gal(b1-4)GlcNAc(b1-2)Man(a1-3)[Gal(b1-4)GlcNAc(b1-2)Man(a1-6)]Man(b1-4)GlcNAc(b1-4)GlcNAc
How it was run: as §1

[17] = biological target: Gal(b1-4)GlcNAc(b1-2)Man(a1-3)[Gal(b1-4)GlcNAc(b1-2)Man(a1-6)]Man(b1-4)GlcNAc(b1-4)[Fuc(a1-6)]GlcNAc
How it was run: as §1

[18] = biological target: Gal(b1-4)GlcNAc(b1-2)Man(a1-3)[Gal(b1-4)GlcNAc(b1-2)Man(a1-6)][Gal(b1-4)GlcNAc(b1-4)]Man(b1-4)GlcNAc(b1-4)[Fuc(a1-6)]GlcNAc
How it was run: as §1

[19] = biological target: Gal(b1-4)GlcNAc(b1-2)Man(a1-3)[Gal(b1-4)GlcNAc(b1-2)Man(a1-6)][GlcNAc(b1-4)]Man(b1-4)GlcNAc(b1-4)[Fuc(a1-6)]GlcNAc
How it was run: as §1

[20] = biological target: Gal(b1-4)GlcNAc(b1-2)Man(a1-3)[GlcNAc(b1-2)Man(a1-6)]Man(b1-4)GlcNAc(b1-4)GlcNAc
How it was run: as §1

[21] = biological target: Gal(b1-4)GlcNAc(b1-2)Man(a1-3)[GlcNAc(b1-4)][Gal(b1-4)GlcNAc(b1-2)Man(a1-6)]Man(b1-4)GlcNAc(b1-4)GlcNAc
How it was run: as §1

[22] = biological target: Gal(b1-4)GlcNAc(b1-2)Man(a1-3)[Man(a1-6)]Man(b1-4)GlcNAc(b1-4)GlcNAc
How it was run: as §1

[23] = biological target: Gal(b1-4)GlcNAc(b1-2)Man(a1-6)Man(b1-4)GlcNAc(b1-4)GlcNAc
How it was run: as §1

[24] = biological target: Gal(b1-4)GlcNAc(b1-2)Man(a1-6)[GlcNAc(b1-2)Man(a1-3)]Man(b1-4)GlcNAc(b1-4)GlcNAc
How it was run: as §1

[25] = biological target: Gal(b1-4)GlcNAc(b1-2)Man(a1-6)[Man(a1-3)]Man(b1-4)GlcNAc(b1-4)GlcNAc
How it was run: as §1

[26] = biological target: Gal(b1-4)GlcNAc(b1-2)[Gal(b1-4)GlcNAc(b1-4)]Man(a1-3)[Gal(b1-4)GlcNAc(b1-2)Man(a1-6)]Man(b1-4)GlcNAc(b1-4)GlcNAc
How it was run: as §1

[27] = biological target: Gal(b1-4)GlcNAc(b1-2)[Gal(b1-4)GlcNAc(b1-4)]Man(a1-3)[Gal(b1-4)GlcNAc(b1-2)[Gal(b1-4)GlcNAc(b1-6)]Man(a1-6)]Man(b1-4)GlcNAc(b1-4)GlcNAc
How it was run: as §1

[28] = biological target: Gal(b1-4)GlcNAc(b1-2)[Gal(b1-4)GlcNAc(b1-4)]Man(a1-3)[GlcNAc(b1-4)][Gal(b1-4)GlcNAc(b1-2)Man(a1-6)]Man(b1-4)GlcNAc(b1-4)GlcNAc
How it was run: as §1

[29] = biological target: Gal(b1-4)GlcNAc(b1-2)[Gal(b1-4)GlcNAc(b1-4)]Man(a1-3)[GlcNAc(b1-4)][Gal(b1-4)GlcNAc(b1-2)[Gal(b1-4)GlcNAc(b1-6)]Man(a1-6)]Man(b1-4)GlcNAc(b1-4)GlcNAc
How it was run: as §1

[30] = biological target: Gal(b1-4)GlcNAc(b1-2)[Gal(b1-4)GlcNAc(b1-6)]Man(a1-6)[Gal(b1-4)GlcNAc(b1-2)Man(a1-3)]Man(b1-4)GlcNAc(b1-4)GlcNAc
How it was run: as §1

[31] = biological target: Gal(b1-4)GlcNAc(b1-2)[Gal(b1-4)GlcNAc(b1-6)]Man(a1-6)[Gal(b1-4)GlcNAc(b1-2)Man(a1-3)]Man(b1-4)GlcNAc(b1-4)[Fuc(a1-6)]GlcNAc
How it was run: as §1

B1: PX9937A-bvu-521-23-521 (Bacteroides vulgatus) (protein)
chain: LDLAPEDYYGAGNFWKEASQPKAFMLGLHAQLRSYYDMFYTLGELRGGTQRVGTSSLNTSLNYADIRSQNISEDIPGISNWNGLYSPIMQVNHFIQEVENGCTFLDDATRSRYLGQAYGMRALYYFMLYRTFGGVPLITKVDILDGKPSADKFYVERATPEATMEFIKADINKSENYFGNNTSFDAYDWSRYATLMLKAEIYMWAAKVSITGFTATGATDLQTAKTALSGIIGHFELMDNFASIFSCDNKKNTEIIFAMPFIEGEASNDGGRFLYQDAVFLGQAYGRNGKVIEKDTLNLKGTGGVFRDEYTEDFWKTFKEGDSRRDATFMEYYMKNDNGTLSEFGCVMKKRIGTINSNDNRIYISDIPVYRYADALLMMAEIENGLNNPCASYINEVRKRAYGDTFEENKYTEGSYAENELAILQERDKEFVSEGKRWFDVLRMHDASGRSLVFSANANYPGTNPILGTEEAYKMLWPVNIGTLNVNPLLTQTPGYGKK
- glycan array binding signal (z-score) [1]: -0.301
- glycan array binding signal (z-score) (Gal(b1-3)GlcNAc6S): 0.146
- glycan array binding signal (z-score) [2]: -0.408
- glycan array binding signal (z-score) [3]: -0.18
- glycan array binding signal (z-score) [4]: 0.172
- glycan array binding signal (z-score) [5]: -0.698
- glycan array binding signal (z-score) [6]: -0.026
- glycan array binding signal (z-score) [7]: -0.248
- glycan array binding signal (z-score) [8]: -0.383
- glycan array binding signal (z-score) [9]: -0.487
- glycan array binding signal (z-score) [10]: -0.564
- glycan array binding signal (z-score) [11]: 0.015
- glycan array binding signal (z-score) (Gal(b1-4)Gal): -0.373
- glycan array binding signal (z-score) [12]: -0.429
- glycan array binding signal (z-score) [13]: -0.328
- glycan array binding signal (z-score) (Gal(b1-4)Glc): -0.389
- glycan array binding signal (z-score) (Gal(b1-4)Glc6S): -0.351
- glycan array binding signal (z-score) (Gal(b1-4)GlcNAc): 0.599
- glycan array binding signal (z-score) [14]: 0.441
- glycan array binding signal (z-score) (Gal(b1-4)GlcNAc(b1-2)Man): -0.059
- glycan array binding signal (z-score) [15]: 0.066
- glycan array binding signal (z-score) [16]: -0.294
- glycan array binding signal (z-score) [17]: 0.343
- glycan array binding signal (z-score) [18]: 0.144
- glycan array binding signal (z-score) [19]: -0.396
- glycan array binding signal (z-score) [20]: -0.327
- glycan array binding signal (z-score) [21]: -0.466
- glycan array binding signal (z-score) [22]: 0.38
- glycan array binding signal (z-score) [23]: -0.439
- glycan array binding signal (z-score) [24]: -0.09
- glycan array binding signal (z-score) [25]: -0.508
- glycan array binding signal (z-score) [26]: -0.553
- glycan array binding signal (z-score) [27]: -0.374
- glycan array binding signal (z-score) [28]: -0.678
- glycan array binding signal (z-score) [29]: -0.312
- glycan array binding signal (z-score) [30]: 4.26
- glycan array binding signal (z-score) [31]: 0.374
